Consider 172 sequences from publication PMC10668032.

This is one part of the list. At the low end of the ranking the order means little.

This assay deals with SIX1 homeodomain (reference allele) (UniProt Q15475). The experiment in a line: universal protein binding microarray. The following applies: Universal all-10-mer PBM (8x60K, AMADID 030236), 300 nM GST-tagged protein, Alexa Fluor 488 anti-GST; buffer, salt, pH and temperature not stated; high values mean tight binding; most listed sequences are background and not binding sites; double strand, one strand shown.
As for CGAACCCG, the binding signal was 0.0612 E-score.

As for AGTCAGCG, the binding signal was -0.16 E-score.

For the sequence CCTATCAC, the binding signal stood at 0.387 E-score.

As for ACACACAA, the binding signal was -0.0656 E-score.

As for GATCCCAC, the binding signal was 0.379 E-score.

Take CGGCTCAA: the binding signal was 0.138 E-score.

With AACAGGAA, the binding signal was -0.158 E-score.

For CGCAGCAG, the binding signal was -0.151 E-score.

In the case of ACTCAGTG, the binding signal is 0.00344 E-score.

In the case of ATGATATC, the binding signal was 0.476 E-score.

As to AGCTAAGA, the binding signal was found to be 0.0234 E-score.

As to CAATACAA, the binding signal is -0.0114 E-score.

As to ATTCCTGC, the binding signal was -0.0499 E-score.

Turning to ACATCCAG, the binding signal is 0.0701 E-score.

ACGCTTTG: the binding signal was -0.116 E-score.

In the case of ATTGCTCC, the binding signal was -0.195 E-score.

As for CCAGTTCG, the binding signal is -0.148 E-score.

On to GCTCAAAA, for which the binding signal is -0.235 E-score.

As to AAACGAAT, the binding signal was -0.135 E-score.

As to AGGGCGAG, the binding signal was -0.129 E-score.

Take CAAGGACA: the binding signal worked out at 0.083 E-score.

With CGAGCCGC, the binding signal turned out to be 0.0277 E-score.

On to AGACTGAT, for which the binding signal was 0.203 E-score.

On to GCCTAGGA, for which the binding signal is -0.157 E-score.

GCCGAGCA: the binding signal is -0.213 E-score.

For the sequence AATGAGCT, the binding signal came to 0.0351 E-score.

As for CCCATTCC, the binding signal was -0.0994 E-score.

As to CAGAGCAG, the binding signal is -0.0504 E-score.

In the case of AACAGAAG, the binding signal is -0.103 E-score.

As for CCCTGTTC, the binding signal is -0.0415 E-score.

AACGTGGC: the binding signal was -0.289 E-score.

Consider CATGTACC, for which the binding signal was -0.138 E-score.

As to GCAGAAGC, the binding signal was -0.0902 E-score.

Regarding AAGCCCGA, the binding signal was -0.149 E-score.

As for CGTAGACC, the binding signal is -0.133 E-score.

As for TAAACGGA, the binding signal turned out to be 0.0177 E-score.

In the case of AACACCAG, the binding signal stood at 0.164 E-score.

Regarding GCCGCACC, the binding signal was -0.114 E-score.

On to TCTTGCAA, for which the binding signal turned out to be 0.016 E-score.

For GTAGCGAC, the binding signal is -0.149 E-score.

For AGGGCGCC, the binding signal was -0.0615 E-score.

Consider CAACACCG, for which the binding signal is 0.268 E-score.

On to AGTCTGCC, for which the binding signal was -0.276 E-score.

Regarding CCAGTAGC, the binding signal was -0.0562 E-score.

With AAGTTTGA, the binding signal is -0.196 E-score.

Take GGAAGAAC: the binding signal was -0.0415 E-score.

Take CTCGTGGA: the binding signal is 0.0194 E-score.

As for TAGTACCA, the binding signal was -0.0455 E-score.

Consider CAGGGAGC, for which the binding signal was -0.0701 E-score.

Consider CACCGATC, for which the binding signal was determined as 0.305 E-score.

As for AGTGCGGC, the binding signal was -0.237 E-score.

In the case of CCATATCC, the binding signal was determined as 0.424 E-score.

GTCGGTGA: the binding signal is -0.0501 E-score.

Take CGCAGTGA: the binding signal stood at 0.0026 E-score.

For the sequence CAGGCTAA, the binding signal was -0.0834 E-score.

As for CTGGTCGC, the binding signal is -0.0995 E-score.

Regarding CACGACCG, the binding signal was -0.0541 E-score.

On to CCATAACG, for which the binding signal was -0.0978 E-score.

For the sequence CAGATCCC, the binding signal came out at 0.295 E-score.

As to AAATGCCG, the binding signal is 0.0387 E-score.

For AATGAACG, the binding signal was -0.137 E-score.

Consider ATAAGGTA, for which the binding signal was found to be 0.247 E-score.

As for GACAAAGC, the binding signal is -0.161 E-score.

Consider TCTTGAAA, for which the binding signal was -0.133 E-score.

As for CGAGCGAG, the binding signal was -0.0686 E-score.

Consider GATGGAGA, for which the binding signal was found to be 0.115 E-score.

Consider ACTCGCCT, for which the binding signal is -0.196 E-score.

With AACCCACT, the binding signal is -0.0296 E-score.

Regarding CGGACGAG, the binding signal is -0.0259 E-score.

As to GCAACGGC, the binding signal was -0.0657 E-score.

Consider CCGGACCC, for which the binding signal was -0.0779 E-score.

In the case of ATGTGATC, the binding signal worked out at 0.32 E-score.

As to ACACCATG, the binding signal was determined as 0.306 E-score.

Take TAAACCAA: the binding signal is -0.139 E-score.

ACTCAGGA: the binding signal is -0.0788 E-score.

Regarding AAGCCGGA, the binding signal is 0.159 E-score.

As for GCGAGGGA, the binding signal worked out at 0.129 E-score.

On to ACCGTAAA, for which the binding signal was -0.0485 E-score.

As for GGCTCAAC, the binding signal was 0.0429 E-score.

For GACCACGA, the binding signal is -0.108 E-score.

Turning to CACTCAAG, the binding signal is -0.129 E-score.

Regarding AAAGATAT, the binding signal was determined as 0.351 E-score.

Consider GTTACATA, for which the binding signal stood at 0.0693 E-score.

As to ACCCCCCT, the binding signal is -0.0405 E-score.

As to AAAACCAC, the binding signal is -0.0309 E-score.

In the case of AACCAACC, the binding signal was -0.155 E-score.

As to CGACACCC, the binding signal turned out to be 0.439 E-score.

For CCAGCAGG, the binding signal was -0.0501 E-score.

Consider CTTCACCA, for which the binding signal was -0.145 E-score.

For GAATGACA, the binding signal is -0.153 E-score.

Turning to CCCTTCCG, the binding signal was -0.0173 E-score.

As for ACCGCGAC, the binding signal was -0.0162 E-score.

For the sequence GAGGGTCA, the binding signal is -0.156 E-score.

As to ACTTTAGC, the binding signal was -0.121 E-score.

Turning to CAGGAGTA, the binding signal was -0.00349 E-score.

With ACACGGCC, the binding signal is -0.131 E-score.

As for CCAACACG, the binding signal is -0.129 E-score.

On to AAACACTT, for which the binding signal is -0.22 E-score.

For GGAGACAA, the binding signal is 0.104 E-score.

Take CACGATAG: the binding signal was determined as 0.245 E-score.

As for GCTCCGAC, the binding signal was -0.308 E-score.

Regarding CCATCCCA, the binding signal came out at 0.142 E-score.

In the case of CCTTTTAG, the binding signal is -0.147 E-score.

With ACCCTCCA, the binding signal is -0.059 E-score.

In the case of ACGACTTG, the binding signal is -0.119 E-score.

In the case of GGTTACAC, the binding signal was 0.145 E-score.

GGGTGAAA: the binding signal was determined as 0.0311 E-score.

Turning to ATGTAGTA, the binding signal is -0.081 E-score.

For the sequence GAGCGCTC, the binding signal is -0.0898 E-score.

As for AGTAACCA, the binding signal was -0.147 E-score.

AAGCTGAA: the binding signal was -0.17 E-score.

As for CGATGTAC, the binding signal was determined as 0.0777 E-score.

As for CTAATAGA, the binding signal came to 0.0898 E-score.

As to TAGGTTAA, the binding signal was found to be 0.00465 E-score.

For CAAGAGTA, the binding signal came to 0.0551 E-score.

Consider CCTTTGCC, for which the binding signal was -0.22 E-score.

As for CTCTAAGA, the binding signal is -0.0514 E-score.

With AGGGCCAA, the binding signal is -0.261 E-score.

On to ACCAGGTC, for which the binding signal is -0.136 E-score.

With CTACGCAA, the binding signal is -0.167 E-score.

AGTCTGTC: the binding signal was -0.219 E-score.

On to CGGACAAA, for which the binding signal was -0.23 E-score.

Consider CCCATCCG, for which the binding signal was 0.191 E-score.

Consider TGCGGACA, for which the binding signal stood at 0.00786 E-score.

With ACCGTCAA, the binding signal is -0.175 E-score.

ATCCGTCG: the binding signal worked out at 0.239 E-score.

In the case of TCGGTCCA, the binding signal was -0.164 E-score.

Take CAAACTCA: the binding signal was -0.236 E-score.

Consider GCGTGGAA, for which the binding signal is -0.13 E-score.

Regarding CGAATGTC, the binding signal was -0.124 E-score.

Consider CCGATAAC, for which the binding signal was 0.239 E-score.

In the case of CAAAGAAC, the binding signal was -0.255 E-score.

Consider CTTACTAA, for which the binding signal is -0.102 E-score.

Consider ACCAACCT, for which the binding signal was -0.212 E-score.

With TACCCAGA, the binding signal came to 0.263 E-score.

Regarding AAAGAGTA, the binding signal was -0.0122 E-score.

With ACCTTAGT, the binding signal was -0.0479 E-score.

In the case of GTGAAGGA, the binding signal is -0.0092 E-score.

In the case of CGATGAAC, the binding signal was -0.0238 E-score.

As for AAAGTGGT, the binding signal is -0.0188 E-score.

For the sequence AGAGGCGC, the binding signal was -0.166 E-score.

Consider AGACAGAT, for which the binding signal came to 0.177 E-score.

AAACTAGA: the binding signal was found to be 0.116 E-score.

Take AGTTCGTG: the binding signal was -0.0892 E-score.

For the sequence TCGACTAA, the binding signal was 0.0421 E-score.

On to CCAATTAC, for which the binding signal was -0.173 E-score.

Take GAATCACA: the binding signal was -0.0516 E-score.

For AGCGCTTA, the binding signal is -0.0208 E-score.

For the sequence CGTGTGTA, the binding signal was determined as 0.126 E-score.

Regarding GAACATTC, the binding signal was -0.253 E-score.

For GTTTAGGA, the binding signal was -0.0944 E-score.

In the case of AACTGGAT, the binding signal came out at 0.172 E-score.

Regarding GGCCGTCA, the binding signal was -0.16 E-score.

With ACGTAGGA, the binding signal amounted to 0.0269 E-score.

With AAGAAATG, the binding signal was -0.229 E-score.

In the case of GGATCACA, the binding signal was 0.436 E-score.

Regarding CCGGGGCA, the binding signal is -0.0827 E-score.

In the case of CTACTTTC, the binding signal was -0.195 E-score.

As for CCCTCCGC, the binding signal is 0.00851 E-score.

In the case of AACCCTTG, the binding signal was determined as 0.0654 E-score.

Regarding GAGTGATA, the binding signal is 0.447 E-score.

Turning to CACTCCGG, the binding signal came to 0.195 E-score.

AGCAGTTG: the binding signal was -0.139 E-score.

Take CGCTGACG: the binding signal was -0.311 E-score.

As for AAGAGATA, the binding signal came out at 0.235 E-score.

Take ACGCTCCG: the binding signal is -0.261 E-score.

CATCGAGG: the binding signal worked out at 0.0206 E-score.

Take GACGAACA: the binding signal was -0.227 E-score.

As for TATCTGGA, the binding signal amounted to 0.309 E-score.

ATGCAGAG: the binding signal was -0.0626 E-score.

Consider AGTGGGTC, for which the binding signal is -0.073 E-score.

With AGGGGCCA, the binding signal is -0.0959 E-score.
